system: rat cortical neurons; parameters: key: A: Statistically significant mean increase as a parent of DMSO control at 10 μM or less; B: No statistically significant mean increase as a percent of DMSO control at 10 μM or less; settings: compound added at 3 DIV, fixed at 9 DIV, vs DMSO control at 10 μM or less
From the text: Neurite Outgrowth Assay in Primary Neuronal Cultures (Cellectricon). Changes in the pattern of neurite outgrowth have been implicated in psychiatric and neurodegenerative disorders as well as traumatic injuries. The discovery of new compounds that can positively affect neuritogenesis are important for developing new therapeutics for neurological diseases. Measurement of neurite outgrowth of rat cortical neurons using an automated image-based assay was used to determine the neuroplastic effects of the compounds of the present invention. The neurite outgrowth assay was performed at Cellectricon AB (Sweden) as described below. All experimental work was conducted in accordance with European and Swedish animal welfare regulations. Pregnant Wistar Han rats (Janvier Labs, France) were housed and the cortices microsurgically dissected at University of Gothenburg, dept. Experimental Biomedicine by trained Cellectricon staff at gestation day 17 ½. The cortical cell culture preparations were performed in the cell laboratory at Cellectricon under sterile conditions.
Cortices were collected in microtubes with Hibernate E on ice. The tissue was triturated with a sterile glass Pasteur pipette to dissociate the tissue and the supernatant from each tube was transferred and pooled into one tube. To each remaining pellet, fresh Hibernate E was added. The trituration procedure above was repeated to fully dissociate the tissue. After the final trituration, the cell suspension was centrifuged. The supernatant was removed, and the pellet re-suspended by addition of Neurobasal complete medium. The cell suspensions were triturated between each addition to dissociate cell aggregates. The cells were counted using an automated cell counter (Countess II 2.0, Invitrogen).
Cells were added to wells in Cellaxess Elektra Poly-D-Lysine coated 384-well plates (Cellectricon AB) at a density of 2500 cells/well. Cells were cultured at 37° C., 5% CO2, 95% humidity. Test compounds were added after 3 days in vitro (DIV) to the cell cultures in concentration response format. The reference compound DL-2,5-Dimethoxy-4-iodoamphetamine hydrochloride (DOI, #10998.11, Chiron/Lab Sweden) was added in a fixed concentration (10 μM) to each plate. At 9 DIV, cell cultures were fixated using 4% PFA. After fixation, plates were blocked with a PBS-based solution consisting of 2% normal goat serum, 0.2% Triton X-100 and stained with primary antibody (anti-p-tubulin III; 1:1000) for detecting the axonal network, incubated overnight and thereafter with secondary antibody. In addition, cultures were stained with Hoechst (1:10 000) for nuclear staining.
High content data was acquired using a Perkin Elmer Operetta high content imager. Data analysis was carried out using the Perkin Elmer Harmony analysis software. To evaluate total number of cells, nuclei were identified using a predefined nuclear detection step. For quantification of total neurite length, the anti-j-III-tubulin positive neurites were detected with a predefined detection step, with parameters adjusted to aid optimal detection of the neurite network staining. For quantification of parameters on a single cell level, neurites were allocated to individual cell bodies. The cell body of an individual neuron was determined as the cytoplasm around the previously selected nucleus in a median smoothed image of the anti-p-III-tubulin staining. Compound effect on neurite outgrowth was evaluated based on two parameters: “number of type one nodes” (single cell level) and “total segment length” (population level). Total segment length data was fitted to Hill's equation and EC50 values were determined for active compounds.

SMILES | Increase in Neurite Branchpoints | Increase in Neurite Length
Cc1cn(C2CNC2)c2ccc(F)cc12 [Compound 1, 1-(azetidin-3-yl)-5-fluoro-3-methyl-1H-indole] | B | B
Fc1ccc2c(ccn2C2CNC2)c1F [Compound 2, 1-(azetidin-3-yl)-4,5-difluoro-1H-indole] | A | A
Fc1ccc2c(ccn2C2CCNC2)c1F (centres unmarked) [Compound 15, 4,5-Difluoro-1-(pyrrolidin-3-yl)-1H-indole] | A | A
Fc1ccc2c(ccn2C2CNC2)c1 [Compound 27, 1-(azetidin-3-yl)-5-fluoro-1H-indole] | A | A
